According to the RNAGym collection of RNA variant scans (doi:10.1093/nar/gkz1192):
Read counts are not given, so values of variants with three or more changes are uncertain.

B1: CPEB3 Ribozyme (parent)
chain: UAACAGGGGGCCACAGCAGAAGCGUUCACGUCGCAGCCCCUGUCAGAUUCUGGUGAAUCUGCGAAUUCUGCUGUAUAUCUC

Variants of: B1
Test: self-cleavage, relative activity (ratio to wild type); higher = more cleavage; in vitro, sequencing
Procedure, shortened: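 Barcoded CPEB3 ribozyme mutants, produced by rounds of error-prone PCR, self-cleaved while being transcribed with T7 RNA polymerase for 5 hours at 37°C and during a subsequent 15 min DNase I step before EDTA was added. Sequencing of template-switched cDNA on Illumina gave cleaved and total reads, and DNA sequencing assigned barcodes to variants. Each variant's relative activity is its cleaved/total read fraction divided by the unmutated ribozyme's fraction, averaged across three batches. A variant needed a minimum of 5 reads.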

Row | Variant | self-cleavage
1 | A13C U41A U43G U49A G63A U76A | 0.11
2 | A13C U41C A45U | 0.89
3 | A13C U43C A65G | 0.12
4 | A13C U58C A65U | 0.16
5 | A13C U58C A65U U76C | 0.06
6 | A13G A15C G24A C32U A56G U69C | 0.04
7 | A13G A15G A18U U25C U78C | 0.12
8 | A13G A15G A20G U43C U54A U76C A77G | 0
9 | A13G A15G A21G A45G U48C U72G U78G | 0.24
10 | A13G A15G A28G A35U A75G | 0.05
11 | A13G A15G A35U U41A U80C | 0.29
12 | A13G A15G A45G U54C | 0.29
13 | A13G A15G A45U | 0.07
14 | A13G A15G C38G U69G | 0.09
15 | A13G A15G U26A U31A U51A | 0.33
16 | A13G A15G U26A U69A | 0.04
17 | A13G A15G U26C C32A | 0.46
18 | A13G A15G U41C | 0.11
19 | A13G A15G U51G A57U U72C | 0.5
20 | A13G A15G U58A | 0.15
21 | A13G A15G U72C | 0.4
22 | A13G A15U A21G G63U | 0.42
23 | A13G A15U A35G A56U U72A | 0.24
24 | A13G A15U A35G U43C | 0.12

Row | Variant | self-cleavage
25 | A13G A15U A56U U58G G63A U80C | 0.06
26 | A13G A15U A57G | 0.42
27 | A13G A15U G19A A45U U74A | 0.24
28 | A13G A15U G33A A47G A64G U74C | 0.12
29 | A13G A15U U26C U41C A77G U80C | 0.19
30 | A13G A15U U31A A35U | 0.08
31 | A13G A15U U41A U54C U60A U67C U74C | 0.06
32 | A13G A15U U49C | 0.05
33 | A13G A15U U51C | 0.37
34 | A13G A15U U54G U69C | 0.09
35 | A13G A15U U67C | 0.11
36 | A13G A15U U80G | 0.8
37 | A13G A18C C29U A35G U67C U72C U74A | 0.03
38 | A13G A18G A20G | 0.1
39 | A13G A18G A20U U49A | 0.26
40 | A13G A18G A21G G24A A57G A65G | 0.22
41 | A13G A18G A21U U26A U49C U67A U78C | 0.16
42 | A13G A18G A28C | 0.14
43 | A13G A18G A28G U51C | 0.31
44 | A13G A18G A28U U72C | 0.14
45 | A13G A18G A56U U58C | 0.12
46 | A13G A18G C38U U43C U80C | 0.27
47 | A13G A18G G33A A64G | 0.06
48 | A13G A18G G33C U49A | 0.04

Row | Variant | self-cleavage
49 | A13G A18G G33C U49A C81U | 0.31
50 | A13G A18G U26C C29U A45G U49C U80A | 0.13
51 | A13G A18G U31G | 0.2
52 | A13G A18G U48C U49C A64G U66C A75U | 0.13
53 | A13G A18G U72C | 0.31
54 | A13G A18U A20G C29U A45U C68A U78C | 0
55 | A13G A18U A20G U26C U58A | 0.46
56 | A13G A18U A21G G30A | 0.07
57 | A13G A18U A56G A64U | 0.15
58 | A13G A18U A57U U60C | 0.13
59 | A13G A18U A64G | 0.23
60 | A13G A18U C29A U48C | 0.05
61 | A13G A18U C34G A64U | 0.17
62 | A13G A18U C37A U49C U72C U80C | 0.06
63 | A13G A18U G33A | 0.16
64 | A13G A18U G55U U58A U67A | 0.18
65 | A13G A18U U26A U54A A56U | 0.21
66 | A13G A18U U26C G36A U51C | 0.15
67 | A13G A18U U31C G55U U58G | 0.03
68 | A13G A18U U41A A47G A64U U69A | 0.05
69 | A13G A18U U54A A56U | 0.14
70 | A13G A18U U54A A56U U74G | 0.15
71 | A13G A20C A21G U66C U80A | 0.09
72 | A13G A20C A35U A64G U74C | 0.08

Row | Variant | self-cleavage
73 | A13G A20G A28G A45U U51G G61U C79U | 0
74 | A13G A20G A35G A45G | 0.5
75 | A13G A20G A35U U58A A77G | 0.12
76 | A13G A20G A45G U67G | 0.41
77 | A13G A20G A47G U54C | 0.39
78 | A13G A20G C32G | 0.35
79 | A13G A20G C32U C37U G73A | 0.6
80 | A13G A20G C34U A47G | 0.24
81 | A13G A20G C38U | 0.37
82 | A13G A20G U26A U31C A35U U74A U78C | 0.08
83 | A13G A20G U26A U41C U48A U49C | 0.04
84 | A13G A20G U26C U41A | 0.59
85 | A13G A20G U26C U72C | 0.47
86 | A13G A20G U31C U41A U80C | 0.11
87 | A13G A20G U41C A65G | 0.28
88 | A13G A20G U43A | 0.59
89 | A13G A20G U43A A56G U66C U69G | 0.2
90 | A13G A20G U54C A57G U69C | 0.22
91 | A13G A20G U54G U60C C79U U80C | 0.14
92 | A13G A20G U58C G61A | 0.12
93 | A13G A20U A56G | 0.13
94 | A13G A20U A65G | 0.57
95 | A13G A20U U69C | 0.16
96 | A13G A21G A28G A45U C68U A75U | 0.44

Row | Variant | self-cleavage
97 | A13G A21G A45G U49G U67C | 0
98 | A13G A21G C32A C50U U51G A65U | 0.03
99 | A13G A21G G52C G63A U67A | 0.2
100 | A13G A21G U26G C29U A57U U67C | 0.03
101 | A13G A21G U31A U43C A56G U60C A77G | 0.05
102 | A13G A21G U31A U66C U78C | 0.24
103 | A13G A21G U41C U72A | 0.24
104 | A13G A21G U43C C68U U76C | 0.19
105 | A13G A21G U58C U69A U72C | 0.2
106 | A13G A21G U60A | 0.17
107 | A13G A21U A35G | 0.34
108 | A13G A21U G22A U80C | 0.24
109 | A13G A21U G22U C37A U51A | 0.14
110 | A13G A28C A64U | 0.07
111 | A13G A28G A45U C62U | 0.08
112 | A13G A28G A47G A56G U69A U72C | 0.15
113 | A13G A28G C37G C59A | 0.15
114 | A13G A28G C40A A45U U67C | 0.03
115 | A13G A28G U43C U58C U72A U80C | 0.15
116 | A13G A28G U49C | 0.48
117 | A13G A28G U60A | 0.18
118 | A13G A28G U60C | 0.19
119 | A13G A28G U67C | 0.14
120 | A13G A28U A35C A47U U80C | 0.18

Row | Variant | self-cleavage
121 | A13G A28U A35G C71G | 0.08
122 | A13G A28U A45G A56U | 0.13
123 | A13G A28U A56U A64G U67C U76C | 0.08
124 | A13G A28U C29A U31A U72C A77G | 0.18
125 | A13G A28U C34G G63U | 0.08
126 | A13G A28U U51A A65G U78C | 0.11
127 | A13G A28U U78C | 0.57
128 | A13G A35G A56G | 0.68
129 | A13G A35G A75G | 0.88
130 | A13G A35G A75U | 1.04
131 | A13G A35G C59G | 0.13
132 | A13G A35G U41A U60A G63A U72C U78C | 0.05
133 | A13G A35G U41A U67C | 0.07
134 | A13G A35G U49A U51A A64U U76C | 0.13
135 | A13G A35G U51C G52C U60C A65G | 0.14
136 | A13G A35G U54C A56G U60A U78C | 0.08
137 | A13G A35G U69A | 0.47
138 | A13G A35U A47U U51C A56U U67C | 0.07
139 | A13G A35U U41C | 0.12
140 | A13G A35U U72C U80C | 0.68
141 | A13G A35U U78C | 0.54
142 | A13G A45C A64G U72C U78A | 0.16
143 | A13G A45C A75U | 0.47
144 | A13G A45G A65G | 0.32

Row | Variant | self-cleavage
145 | A13G A45G U69C | 0.27
146 | A13G A45G U72C | 0.54
147 | A13G A45G U72G U76C A77U | 0.21
148 | A13G A45U A57U | 0.09
149 | A13G A45U U51C | 0.21
150 | A13G A45U U54C C59A U60A | 0.11
151 | A13G A45U U67C A77G C81A | 0.2
152 | A13G A47G U54C U58A U67C | 0.05
153 | A13G A47G U78C U80C | 0
154 | A13G A47U U67C | 0.15
155 | A13G A56G G61A | 0.18
156 | A13G A56G U69G | 0.44
157 | A13G A56G U80C | 0.69
158 | A13G A56U U69C | 0.13
159 | A13G A57G A64G | 0.44
160 | A13G A57G U58C A75U | 0.17
161 | A13G A57G U66C | 0.29
162 | A13G A57G U69A | 0.28
163 | A13G A64G U67C | 0.08
164 | A13G A64G U69A | 0.11
165 | A13G A64G U72C | 0.53
166 | A13G A64U A65G | 0.15
167 | A13G A64U A77G | 0.44
